Source: PubChem BioAssay AID651820 (National Center for Advancing Translational Sciences (NCATS), 2012)
Where “and” joins values, the source holds several entries; their conditions need not be identical. Identical values can stand only once. About 12,000 (3.5%) of roughly 340,000 compounds were called active. Inconclusive means that the source gave no clear call. Such entries were picked first, then a sample of the others. The call rests on the fitted dose curve; in most records, active means well fitted inhibition curve with a large enough effect; inconclusive means small, poorly fitted or top-dose-only effect, or another doubt; inactive means no such curve, though single readings can be large or run the other way. Potencies of inconclusive entries are left out as doubtful fits.
Potency means the concentration at half of the fitted maximal effect; tags describe the fitted curve by direction and shape.

Assay: qHTS Assay for Inhibitors of Hepatitis C Virus (HCV)
Conditions: Huh7.5.1 HCVcc-Cre (HCVcc is cell-culture hepatitis C virus) infection, luciferase reporter, 44 h; series mostly up to 41.8 µM
Method in brief: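 Infectious HCV cell culture screen: compound-treated cells (1,000/well, pre-plated 4 h) are infected with HCVcc-Cre at roughly 0.5 moi and grown 44 h. Infection is quantified by luciferase signal after 15 min substrate incubation at room temperature.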
For O=C(CN1C(=O)/C(=C\c2ccc(C(F)(F)F)cc2)Sc2ccccc21)NCc1ccco1, the Potency was inconclusive [inhibitor, partial curve].
In the case of CCOc1cccc(-c2c(C(=O)N/N=C/c3ccoc3)nnn2-c2nonc2N)c1, the Potency is reported as “inactive”.
In the case of CC(C)CCNC(=O)C(c1ccncc1)N(Cc1cccs1)C(=O)Cn1nnc(-c2ccc(F)cc2)n1 (configuration not stated), the Potency is reported as inconclusive [inhibitor, full curve].
For CC(NC(=O)c1ccc(Cl)cc1)C(=O)NC1=NCCS1 (configuration not stated), the Potency was “inactive”.
In the case of CC(C)Cn1c(N)c(C(=O)NCC2CCCO2)c2nc3ccccc3nc21 (configuration not stated), the Potency is reported as inconclusive [inhibitor, single point].
In the case of CC(=O)Nc1ccc(N2C(=O)CSC2c2ccccc2[N+](=O)[O-])cc1 (configuration not stated), the Potency is reported as “inactive”.
For Oc1ccc(C[C@@H]2CNCCN2CCC23CC4CC(CC(C4)C2)C3)cc1, the Potency was inconclusive [inhibitor, full curve].
With Cc1nn(CSc2c(F)c(F)c(F)c(F)c2F)c(C)c1[N+](=O)[O-] the Potency was inconclusive [inhibitor, full curve, poor fit].
In the case of C=CCC[C@@H](Cc1ccc(F)cc1)C(=O)OC[C@@H](Cc1c[nH]c2ccccc12)NC(=O)[C@H](CC=C)CC(=O)N(CCO)Cc1ccccc1, the Potency is reported as inconclusive [inhibitor, single point].
In the case of O=C(/C=C/c1ccco1)Nc1ccc(Oc2ccccc2)cc1, the Potency is reported as active: 14.1 µM.
For Cc1ccc(N(CCC(=O)O)S(=O)(=O)c2ccccc2)cc1, the Potency was “inactive”.
With CC1(C(=O)OCC(=O)Nc2ccc(C(N)=O)cc2)CC1(Cl)Cl (configuration not stated) the Potency was “inactive”.
For CCc1cc(=O)oc2cc(C)cc(OCC(C)=O)c12, the Potency was inconclusive [inhibitor, full curve, poor fit].
With O=C(CCl)Nc1ccc(-c2ccccc2)cc1 the Potency was active: 3.16 µM.
With Oc1ccccc1C1=NCCNC(C(F)(F)F)=C1 the Potency was “inactive”.
In the case of CC(C)NC1=C(Cl)C(=O)c2ccccc2C1=O, the Potency is reported as inconclusive [inhibitor, partial curve, poor fit].
For N=C1c2ccccc2CN1NC(=O)c1ccc(Br)o1, the Potency was inconclusive [inhibitor, single point].
For O=C(OCc1ccccc1F)c1cc([N+](=O)[O-])ccc1N1CCOCC1, the Potency was active: 10 µM.
In the case of CCN(CC)S(=O)(=O)c1ccc(N2CCOCC2)c(NS(=O)(=O)c2cccs2)c1, the Potency is reported as “inactive”.
For Cc1ccc(-c2ccnc3cc(C)nn23)cc1, the Potency was inconclusive [inhibitor, partial curve].
In the case of COc1ccc(CCNC(=O)c2ccc(N(C)S(=O)(=O)c3ccc(C)cc3)cc2)cc1OC, the Potency is reported as active: 10 µM.
With O=C(NCC1CCCO1)c1cc2c([nH]c3ccccc32)c(-c2cccc(Br)c2)n1 (configuration not stated) the Potency was active: 2 µM.
For Cc1cccc(Oc2ccccc2NC(=O)CN2C(=O)NC3(CCCC3)C2=O)c1, the Potency was inconclusive [inhibitor, single point].
For CCn1c(O)c(N=NC(=O)c2cccc(S(=O)(=O)N3CCCCC3)c2)c2ccccc21, the Potency was inconclusive [inhibitor, partial curve].
In the case of CC(C)(C)NC(=O)C1Cc2ccccc2CN1 (configuration not stated), the Potency is reported as “inactive”.
For O=C(Nc1ccccn1)c1ccc(Br)s1, the Potency was “inactive”.
In the case of CCN=C1S/C(=C\c2ccc(O)c(OCC)c2)C(=O)N1CC, the Potency is reported as inconclusive [inhibitor, partial curve].
For O=C(CSc1nc2ccc([N+](=O)[O-])cc2[nH]1)c1ccc(Cl)cc1, the Potency was inconclusive [inhibitor, single point].
For CC(=O)Nc1ccc(-c2csc(NCc3ccco3)n2)cc1, the Potency was inconclusive [inhibitor, partial curve].
For COc1ccc2nc(NC(=O)C3CCCN(S(=O)(=O)c4cccs4)C3)sc2c1 (configuration not stated), the Potency was active: 12.6 µM.
In the case of CC1=CC(C)(C)N=C(Nc2nc(C)c3cc(C)cc(C)c3n2)N1, the Potency is reported as inconclusive [inhibitor, single point].
In the case of O=C(NCCCn1ccnc1)c1csc2ccccc12, the Potency is reported as “inactive”.
For CCc1ccc(CNCc2cccnc2)cc1, the Potency was “inactive”.
For CC(C)C(=O)Nc1cccc(C(=O)Nc2cc([N+](=O)[O-])ccc2Cl)c1, the Potency was inconclusive [inhibitor, single point].
In the case of O=C(NCc1ccncc1)c1nc(-c2cccs2)no1, the Potency is reported as “inactive”.
In the case of C[C@H](NC(=O)c1nc[nH]c1C(=O)N1CCN(C(=O)OC(C)(C)C)CC1)C(=O)OCc1ccccc1, the Potency is reported as “inactive”.
In the case of O=C(CN1CCOCC1)c1ccc2cc[nH]c2c1, the Potency is reported as inconclusive [inhibitor, single point].
In the case of CCCCc1cc(=O)oc2cc(C)cc(OCC(=O)N[C@@H](CSCc3ccccc3)C(=O)O)c12, the Potency is reported as inconclusive [inhibitor, partial curve].
With COc1ccc(/C=N/NC(=O)c2ccc(Cn3cc([N+](=O)[O-])cn3)o2)c(OC)c1C the Potency was inconclusive [inhibitor, partial curve, poor fit].
With Cc1c(C(=O)N2CCCCC2)c(S(=O)(=O)N2c3ccccc3CC2C)c(C)n1C (configuration not stated) the Potency was “inactive”.
For COc1ccc(C(=O)c2sc(NC(C)C)nc2N)cc1OC, the Potency was inconclusive [inhibitor, single point].
For O=c1[nH]c(C2CCN(S(=O)(=O)c3ccc(S(=O)(=O)NC4CC4)cc3)CC2)nc2c1nnn2Cc1ccc(F)cc1, the Potency was “inactive”.
With COc1ccc(OC2CCN(S(=O)(=O)c3cccc(F)c3)CC2)cc1 the Potency was inconclusive [inhibitor, single point].
In the case of O=C(c1ccc(-c2ccccc2)c(F)c1)C1CCCN(CCO)C1 (configuration not stated), the Potency is reported as active: 11.2 µM.
In the case of COc1ccc(/C=C/C(=O)OCC(=O)c2ccc3c(c2)NC(=O)CO3)c(OC)c1, the Potency is reported as active: 11.2 µM.
With O=c1[nH]cn[nH]1 the Potency was active: 0.562 µM.
For COc1ccc2c(c1)C(C)CC(C)(C)N2C(=O)CSc1nc2ccccc2s1 (configuration not stated), the Potency was inconclusive [inhibitor, single point].
With O=S(=O)([O-])C/C(=C\c1ccc(Cl)cc1)c1cc[n+](CCO)cc1 the Potency was inconclusive [inhibitor, partial curve].
For CCNC(=O)c1c(NC(=O)c2cc(-c3cc(C)cc(C)c3O)n[nH]2)sc2c1CCCC2, the Potency was inconclusive [inhibitor, full curve, poor fit].
In the case of Cc1ccc(-c2cc(C(F)F)n3ncc(C(=O)Nc4c(C)nn(Cc5ccccc5Cl)c4C)c3n2)cc1, the Potency is reported as inconclusive [inhibitor, single point].
In the case of CCOc1ccc(CN2CCCC(CO)(Cc3ccc(F)cc3)C2)cc1 (configuration not stated), the Potency is reported as “inactive”.
With C=CS(=O)c1sc(Cl)c(N2CCOCC2)c1[N+](=O)[O-] (configuration not stated) the Potency was inconclusive [inhibitor, single point].
In the case of O=C(c1ccc(Cn2cc(Cl)c([N+](=O)[O-])n2)cc1)N1CCN(Cc2ccccc2)CC1, the Potency is reported as active: 11.2 µM.
With CCn1nc(C)c(NC(=O)CCCSc2nc(-c3ccco3)cc(C(F)(F)F)n2)c1C the Potency was active: 11.2 µM and active: 2 µM.
For COc1ccc(Cl)cc1-c1n[nH]c(=S)n1Cc1ccccc1, the Potency was “inactive”.
In the case of O=C(NNC(=O)c1cc(Br)ccc1O)c1csc(N2CCOCC2)n1, the Potency is reported as inconclusive [inhibitor, single point].
With COc1ccc(-c2cc(-c3nnc(COC(=O)c4ccc(O)cc4)o3)c3ccccc3n2)cc1OC the Potency was inconclusive [inhibitor, full curve].
With COC(=O)C1=C(N)Oc2cc(C)[nH]c(=O)c2C1c1cc(OC)c(OC)c(OC)c1 (configuration not stated) the Potency was “inactive”.
With CCCC(=O)Nc1nc(-c2ccc(Cl)s2)cs1 the Potency was inconclusive [inhibitor, single point].
For COc1ccc(NC(=O)CN(C)C(=O)C(C)Oc2ccc(Br)cc2)cc1 (configuration not stated), the Potency was “inactive”.
For CN(C(=O)c1ccc(NC(=O)c2ccco2)cc1)c1ccccc1, the Potency was “inactive”.
In the case of COc1cccc(CN(C)C(=O)CNC(=O)c2sc3ccccc3c2Cl)c1OC, the Potency is reported as inconclusive [inhibitor, partial curve].
In the case of O=C(NC(=S)Nc1ccc(CN2CCCCC2)cc1)c1cccc(OCc2ccccc2)c1, the Potency is reported as inconclusive [inhibitor, single point].
With N#CC1=C(N)S[C@H](C(=O)C23CC4CC(CC(C4)C2)C3)[C@H]1c1ccncc1 the Potency was “inactive”.
In the case of Cc1cccc(C(=O)O/N=C(\N)Cc2ccc([N+](=O)[O-])cc2)c1, the Potency is reported as inconclusive [inhibitor, partial curve].
With c1ccc(Cn2cnc3ccccc32)cc1 the Potency was inconclusive [inhibitor, full curve, poor fit].
With OCCCn1c(CCCNc2nc(-c3cccc(Br)c3)cs2)nc2cc(Cl)c(N3CCCCC3)cc21 the Potency was inconclusive [inhibitor, partial curve].
With COc1ccc(NC(=O)COc2ccc(S(=O)(=O)N3CCOCC3)cc2C)cc1OC the Potency was inconclusive [inhibitor, single point].
For CCc1cccc(NC(=O)CCCN2C(=O)C(c3ccccc3)Oc3cccnc32)c1 (configuration not stated), the Potency was inconclusive [inhibitor, single point].
With Cc1ccc(/C(=N\O)c2oc3c(C)c4oc(=O)cc(C)c4cc3c2C)cc1 the Potency was active: 5.62 µM.
In the case of COc1ccc(CN2CCc3cc(OC)c(OC)cc3C2)cc1O, the Potency is reported as inconclusive [inhibitor, full curve].
With Cc1ccc2[nH]c3c(N4CCOCC4)ncnc3c2c1 the Potency was inconclusive [inhibitor, partial curve].
